In PubChem BioAssay AID1768 (National Center for Advancing Translational Sciences (NCATS), 2009):
Out of some 270,000 compounds screened, about 620 (0.23%) were called active. The inconclusive results got no clear call from the source; some entries with a clear call stand among them for comparison. Calls come from the whole dose curve; as a rule, active = well fitted inhibition curve with a large enough effect in the polarisation, with a control signal flat (not every such curve was filed as active); inconclusive = small, poorly fitted or top-dose-only effect, or effect the other way, or a change in a side signal; inactive = no such curve, though single readings can be large or run the other way; the % refers to the polarisation. A potency beside an inconclusive call is a rough fit, not a confirmed value. “Side channel” marks fits to a control or component signal instead of the main read-out.

What follows are molecules tested against Menin (Homo sapiens) (UniProt O00255) (assay: qHTS Assay for Inhibitors Targeting the Menin-MLL Interaction in MLL Related Leukemias: Competition With Texas Red Labeled MLL-derived Mutant Peptide). Details: fluorescence polarization; FP activity change, negative = inhibition: at 61.6 µM (top of the series).
UniProt O00255, sequence (O00255 whole entry, looked up): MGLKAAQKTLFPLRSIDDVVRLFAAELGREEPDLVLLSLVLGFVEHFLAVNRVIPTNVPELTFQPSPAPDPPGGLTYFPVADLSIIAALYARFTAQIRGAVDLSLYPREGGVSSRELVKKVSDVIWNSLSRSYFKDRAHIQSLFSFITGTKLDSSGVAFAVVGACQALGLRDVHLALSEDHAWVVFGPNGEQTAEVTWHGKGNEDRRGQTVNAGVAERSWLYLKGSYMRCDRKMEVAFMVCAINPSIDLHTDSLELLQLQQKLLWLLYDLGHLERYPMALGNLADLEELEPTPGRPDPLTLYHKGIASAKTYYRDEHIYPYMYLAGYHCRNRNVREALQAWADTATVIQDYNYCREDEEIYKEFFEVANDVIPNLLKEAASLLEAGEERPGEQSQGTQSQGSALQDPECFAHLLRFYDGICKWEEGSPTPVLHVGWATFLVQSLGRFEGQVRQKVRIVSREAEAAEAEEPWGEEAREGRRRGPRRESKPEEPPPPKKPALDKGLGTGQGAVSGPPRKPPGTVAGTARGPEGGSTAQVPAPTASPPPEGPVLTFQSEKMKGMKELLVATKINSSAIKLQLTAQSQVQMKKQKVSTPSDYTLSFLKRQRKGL
Potency is the fitted concentration of half-maximal effect; tags give direction and shape of the fitted curve or compound fluorescence and quenching.
Throughout, for FP activity change, negative = inhibition: % of control where 0% means no effect.

SMILES | Potency | FP activity change, negative = inhibition
Cc1ccc(C)c(OCc2cc(C(=O)NC3CCN(Cc4ccccc4)CC3)no2)c1 | inconclusive: 7.08 µM [fluorescent, side channel, partial curve] | –
O=c1c2ccccc2nc(/C=C/c2cccc(Br)c2)n1CCCO | inconclusive: 39.8 µM [fluorescent, single point] | –
CCN(C(=O)c1cccnc1SC)C12CC3CC(CC(C3)C1)C2 | inconclusive: 31.6 µM [fluorescent, side channel, single point] | –
O=c1cc(-c2ccccc2O)oc2cc(O)ccc12 | inconclusive: 39.8 µM [fluorescent, side channel, single point] | –
CCC(C)NCC(O)(c1ccc(Cl)cc1)c1ccc(Cl)cc1 (stereo not given) | inconclusive: 35.5 µM [fluorescent, side channel, single point] | –
CCSc1nc(N)c(C#N)c(-c2ccccc2Cl)c1C#N | inconclusive: 17.8 µM [quencher, side channel, partial curve] | –
Cc1ccc(OCCCC(=O)Nc2ccc(S(=O)(=O)Nc3cc(C)on3)cc2)cc1 | inconclusive: 22.4 µM [quencher, side channel, partial curve] | –
C=CCNC(=O)N1CCCC(C(=O)c2cccc(OC(C)C)c2)C1 (stereo not given) | inconclusive: 14.1 µM [inhibitor, single point] | –
Cc1ccc(-c2nnn(CC(=O)Nc3ccc(S(=O)(=O)N4CCC(C)CC4)cc3)n2)cc1 | inconclusive: 6.31 µM [fluorescent, side channel, full curve] | –
COCCn1c(Cc2ccccc2)nnc1SCc1nc2ccccc2c(=O)[nH]1 | inconclusive: 25.1 µM [fluorescent, side channel, single point] | –
O=C(CC1C(=O)NCCN1CC1CCCCC1)NCc1ccc(F)cc1F (stereo not given) | inconclusive: 39.8 µM [inhibitor, single point] | –
COc1ccc(-c2ccc(C3C(C#N)=C(N)Oc4n[nH]c(C)c43)o2)cc1 (stereo not given) | inconclusive: 35.5 µM [quencher, side channel, single point] | –
O=C(O)c1ccc(-c2ccc(OS(=O)(=O)c3ccccc3F)cc2)cc1 | inconclusive: 22.4 µM [quencher, side channel, single point] | –
Cc1ccc(C(=O)Nc2ccc(N3CCCC3)cc2)cc1 | inconclusive: 35.5 µM [quencher, side channel, single point] | –
CCOC(=O)c1cccnc1SCC(=O)N(CC)c1cccc(C)c1 | inconclusive: 12.6 µM [fluorescent, side channel, partial curve] | –
O=C(Nc1ccccc1)c1cnc(-c2ccccc2)nc1-c1ccccc1 | inconclusive: 28.2 µM [inhibitor, partial curve] | –
Cc1[nH]c2ccccc2c1/C=N/NC(=O)c1cccc(Br)c1 | inconclusive: 25.1 µM [quencher, partial curve] | –
N#CCCn1c(=O)c(-c2ccccc2)nc2cnc(Nc3ccccc3)nc21 | inconclusive: 39.8 µM [inhibitor, single point] | –

SMILES | Potency | FP activity change, negative = inhibition
N#CC1=C(N)NC(SCC(=O)c2ccc(Br)cc2)=C(C#N)C12CCCCC2 | inconclusive: 25.1 µM [quencher, side channel, partial curve] | –
O=C(CSc1nc2ccccc2[nH]1)Nc1nc(-c2ccc(Br)cc2)cs1 | inconclusive: 5.62 µM [quencher, side channel, full curve] | –
Nc1[nH]c(=O)[nH]c(=O)c1N=Nc1ccc(C(=O)O)cc1 | inconclusive: 39.8 µM [quencher, side channel, single point] | –
COc1cc(NC(=O)Cn2nnc(-c3ccccc3N)n2)cc(OC)c1 | inconclusive: 12.6 µM [quencher, side channel, partial curve] | –
COc1ccc(C2=NS(=O)(=O)N(C)C(C(=O)Nc3ccc(C(C)=O)cc3)=C2)cc1OC | inconclusive: 14.1 µM [quencher, side channel, partial curve] | –
COc1ccc(-c2ccc(SCc3ccccn3)nn2)cc1OC | inconclusive: 39.8 µM [fluorescent, side channel, single point] | –
CS(=O)(=O)c1ccc(-n2c(=O)n(Cc3ccccc3)c(=O)c3[nH]cnc32)cc1 | inconclusive: 7.94 µM [inhibitor, full curve, poor fit] | –
CCOC(=O)c1sc(-c2ccccc2)cc1NC(=O)Nc1ccc([N+](=O)[O-])cc1 | inconclusive: 0.708 µM [quencher, side channel, full curve, poor fit] | –
COc1cc(/C=C/c2ccc3cccc([N+](=O)[O-])c3n2)ccc1OCC(=O)O | inconclusive: 25.1 µM [quencher, side channel, partial curve] | –
CC(C)(C)OC(=O)NN1CC(=O)N2[C@@H](Cc3c([nH]c4ccccc34)C2(C)C)C1=O | inconclusive: 6.31 µM [fluorescent, side channel, single point] | –
OCCN1C2=NCCCN2c2ccccc21 | – | inactive: -10.8%
CN(C)/C=C/C(=O)c1cnc(-c2cccc(Cl)c2)s1 | inconclusive: 17.8 µM [quencher, side channel, partial curve] | –
CCOc1ccccc1NC(=O)Cn1nnc(C(=O)NCc2cccs2)c1N | inconclusive: 39.8 µM [fluorescent, side channel, single point] | –
Cc1cc(NC(=O)OC2CCCCC2)ccc1[N+](=O)[O-] | inconclusive: 12.6 µM [quencher, side channel, partial curve] | –
CN(C)CCNC(=O)/C(=C/c1ccc(-c2ccc(Cl)cc2)o1)NC(=O)c1ccccc1 | – | inactive: 3.43%
COc1ccc(-c2cc(CCCC(=O)NCCc3cc(OC)ccc3OC)no2)cc1 | inconclusive: 7.94 µM [inhibitor, full curve] | –
CNS(=O)(=O)c1ccc(NC(=O)C2c3ccccc3Oc3ccccc32)cc1 | inconclusive: 28.2 µM [quencher, side channel, partial curve] | –
